“And” between values parts separate entries of the source, which are not always exact repeats. Identical values can stand only once. Inconclusive means that the source gave no clear call. Such entries were picked first, then a sample of the others. Where the call is inconclusive, the potency comes from a doubtful curve fit. Some compounds were tested as several samples or in several runs, with calls that do not always agree. The source made the active and inactive calls. Calls follow the shape of the dose curve; as a rule, active = well fitted curve in the direction sought with a large enough effect; inconclusive = small, poorly fitted or top-dose-only effect, or another doubt; inactive = no such curve, though single readings can be large; an effect the other way counts as inactive or inconclusive.
Columns and labels:
[1] = Primary qHTS for inhibitors of nuclear receptor binding SET domain protein 2 (NSD2) in an isogenic RCH-ACV NSD2 p.E1099K mutant (9B) (AID 1645876); conditions: RCH-ACV NSD2 E1099K (9B) viability, CellTiter-Glo, 72 h; series mostly up to 44.9 µM
[2] = Primary qHTS for inhibitors of nuclear receptor binding SET domain protein 2 (NSD2) in an RCH-ACV wild type WT cells (2C) (AID 1645877); conditions: RCH-ACV (leukaemia line) NSD2 WT (2C) viability, CellTiter-Glo, 72 h; series mostly up to 44.9 µM
Also: nearly all actives have a fitted effect of over 70% in size.
Potency is read from the fitted curve at half-maximal effect; tags tell the direction and shape of the fitted curve.

Structure (SMILES)	Potency [1]	Potency [2]
Cc1c(C(=O)NN2CCCCC2)nn(-c2ccc(Cl)cc2Cl)c1-c1ccc(Cl)cc1	inconclusive: 18.8 µM [inhibitor, single point] and inconclusive: 11.8 µM [inhibitor, partial curve]	inconclusive: 21.1 µM [inhibitor, single point] and inconclusive: 10.5 µM [inhibitor, partial curve]
OC[C@H](Cc1ccccc1)Nc1nc(Oc2ccc3c(c2)CCC3)nc2c1ncn2Cc1ccc(-c2ccccc2)cc1	inconclusive: 7.42 µM [inhibitor, full curve]	inconclusive: 16.6 µM [inhibitor, partial curve, poor fit]
COC(=O)[C@H](c1ccccc1Cl)N1CCc2sccc2C1	inactive	inactive
COc1cc(OC)c(NC(=O)Nc2cc(C)on2)cc1Cl	inconclusive: 9.34 µM [inhibitor, single point]	inconclusive: 11.8 µM [inhibitor, single point]
Clc1ccc(COC(Cn2ccnc2)c2ccc(Cl)cc2Cl)c(Cl)c1 (configuration not stated)	inconclusive: 13.2 µM [inhibitor, partial curve, poor fit]	inconclusive: 13.2 µM [inhibitor, partial curve, poor fit]
CCOC(=O)[C@H](CCc1ccccc1)N[C@H]1CCc2ccccc2N(CC(=O)O)C1=O	inconclusive: 26.6 µM [inhibitor, single point]	inconclusive: 21.1 µM [inhibitor, single point] and inactive
COc1cc(OC2CCN(C)CC2)ccc1Nc1ncc2c(n1)n(C1CCCC1)c(=O)n2C	active: 5.25 µM	active: 3.72 µM
COC(=O)Nc1nc2ccc(C(=O)c3ccccc3)cc2[nH]1	active: 211 nM and active: 417 nM	active: 106 nM and active: 372 nM
Cc1ccc(-c2cc(C(F)(F)F)nn2-c2ccc(S(N)(=O)=O)cc2)cc1	inconclusive: 33.5 µM [inhibitor, single point] and inconclusive: 29 µM [inhibitor, single point]	inconclusive: 29.9 µM [inhibitor, single point] and inconclusive: 23 µM [inhibitor, single point]
C[C@]12C=CC(=O)C=C1CC[C@@H]1[C@@H]2C(=O)C[C@@]2(C)[C@H]1CC[C@]2(O)C(=O)CO	inconclusive: 29.9 µM [inhibitor, single point] and inactive	inconclusive: 26.6 µM [inhibitor, single point]
CN(C)C(=O)c1ccc(S(=O)(=O)c2ccc(NC(=O)[C@@](C)(O)C(F)(F)F)c(Cl)c2)cc1	inconclusive: 7.28 µM [inhibitor, partial curve] and inconclusive: 5.9 µM [inhibitor, full curve]	inconclusive: 8.17 µM [inhibitor, partial curve] and inconclusive: 3.72 µM [inhibitor, full curve]
COc1c(Cl)cc2c([nH]c3cnccc32)c1NC(=O)c1cccnc1C	inconclusive: 20.6 µM [inhibitor, partial curve, poor fit]	inconclusive: 20.6 µM [inhibitor, single point]
CCOc1cc(C(=O)Nc2ccc(Cl)c(-c3nc4ccccc4[nH]3)c2)cc(OCC)c1OCC	inconclusive: 11.8 µM [inhibitor, full curve]	inconclusive: 11.8 µM [inhibitor, partial curve]
Fc1ccc(Cl)cc1-c1nc(Nc2ccncc2)c2nccnc2n1	inconclusive: 10.3 µM [inhibitor, partial curve] and inconclusive: 7.42 µM [inhibitor, single point]	inconclusive: 18.4 µM [inhibitor, single point] and inconclusive: 4.68 µM [inhibitor, full curve]
Cc1ccc2c(c1)c1c(n2CCc2ccc(C)nc2)CCN(C)C1	active: 14.5 µM	inconclusive: 0.728 µM [inhibitor, full curve, poor fit]
C[C@@H]1CC(=O)NN=C1c1ccc(NN=C(C#N)C#N)cc1	inconclusive: 18.8 µM [inhibitor, single point]	inconclusive: 18.6 µM [inhibitor, partial curve, poor fit]
CCCS(=O)(=O)Nc1ccc(F)c(C(=O)c2c[nH]c3ncc(Cl)cc23)c1F	inconclusive: 14.8 µM [inhibitor, partial curve]	inconclusive: 18.6 µM [inhibitor, partial curve]
CNc1nccc(-c2cccnc2Oc2cc(C(=O)Nc3cccc(C(F)(F)F)c3)ccc2C)n1	active: 2.58 µM and active: 3.72 µM	inconclusive: 2.09 µM [inhibitor, full curve]

Structure (SMILES)	Potency [1]	Potency [2]
COc1cccc(Nc2c(C(N)=O)cnc3c(C)cc(S(=O)(=O)c4cccc(C(=O)N(C)C)c4)cc23)c1	inconclusive: 1.15 µM [inhibitor, full curve]	inconclusive: 2.58 µM [inhibitor, full curve]
Cc1cccc(CN2CCN(C(c3ccccc3)c3ccc(Cl)cc3)CC2)c1 (configuration not stated)	inconclusive: 23.7 µM [inhibitor, single point] and inactive	inconclusive: 21.1 µM [inhibitor, single point] and inconclusive: 26.3 µM [inhibitor, single point]
CCOc1cc(N)c(Cl)cc1C(=O)NCC1CN(Cc2ccc(F)cc2)CCO1 (configuration not stated)	inconclusive: 29.5 µM [inhibitor, single point]	inconclusive: 29.9 µM [inhibitor, partial curve, poor fit] and inconclusive: 16.6 µM [inhibitor, partial curve]
Cn1cc(-c2ccc3nnc(Sc4ccc5ncccc5c4)n3n2)cn1	inconclusive: 18.6 µM [inhibitor, partial curve]	inconclusive: 29.5 µM [inhibitor, single point]
COc1cc2c(cc1OC)CC(=O)N(CCCN(C)C[C@H]1Cc3cc(OC)c(OC)cc31)CC2	inactive	inactive
CN1CCN(c2ncc(-c3cc(Cl)cc(Cl)c3Cl)c(N)n2)CC1	inconclusive: 26.3 µM [inhibitor, single point]	active: 18.6 µM
O=c1ncn2nc(Sc3ccc(F)cc3F)ccc2c1-c1c(Cl)cccc1Cl	inconclusive: 14.8 µM [inhibitor, partial curve]	inconclusive: 11.6 µM [inhibitor, partial curve]
c1ccc(-c2oc3ncnc(NC[C@@H]4CCCO4)c3c2-c2ccccc2)cc1	inconclusive: 18.3 µM [inhibitor, single point]	inactive and active: 18.3 µM
CCC1(C)CC(=O)NC1=O (configuration not stated)	inactive	inactive
CN(CC(=O)N(Cc1ccc(C2CCCCC2)cc1)c1ccc(C(=O)O)c(O)c1)S(=O)(=O)c1c(F)c(F)c(F)c(F)c1F	inconclusive: 9.34 µM [inhibitor, single point]	inconclusive: 10.5 µM [inhibitor, single point]
CN(C)CCC=C1c2ccccc2C=Cc2ccccc21	inconclusive: 33.5 µM [inhibitor, single point]	inconclusive: 26.6 µM [inhibitor, single point]
Fc1ccc([C@@H]2CCNC[C@H]2COc2ccc3c(c2)OCO3)cc1	inconclusive: 29.9 µM [inhibitor, single point]	inconclusive: 29.9 µM [inhibitor, single point]
Cc1cc(OCCCS(C)(=O)=O)cc(C)c1-c1cccc(COc2ccc3c(c2)OC[C@H]3CC(=O)O)c1	inconclusive: 37.2 µM [inhibitor, partial curve, poor fit]	inconclusive: 33.2 µM [inhibitor, partial curve, poor fit]
CCCCC(=O)O[C@]1(C(=O)CO)[C@@H](C)C[C@H]2[C@@H]3CCC4=CC(=O)C=C[C@]4(C)[C@@]3(F)[C@@H](O)C[C@@]21C	inactive and inconclusive: 41.7 nM [inhibitor, full curve, poor fit]	active: 8.4 nM and active: 33.2 nM
COc1ccc2c(OCc3nnc4ccc(-c5ccccc5)nn34)ccnc2c1	inactive	inactive
COc1cc2c(cc1OC)CN(CCc1ccc(NC(=O)c3cccc4c(=O)c5cccc(OC)c5[nH]c34)cc1)CC2	inconclusive: 23.5 µM [inhibitor, single point]	inactive and inconclusive: 16.6 µM [inhibitor, partial curve, poor fit]
C=C[C@@H]1CN2CCC1C[C@H]2[C@H](O)c1ccnc2ccc(OC)cc12 (some centres not stated)	inconclusive: 23.5 µM [inhibitor, single point]	inconclusive: 37.2 µM [inhibitor, partial curve, poor fit]
Fc1ccc(CNc2ncnc3ccc(F)cc23)cc1	inconclusive: 3.72 µM [inhibitor, full curve]	inconclusive: 3.32 µM [inhibitor, full curve]

Reference: PubChem BioAssay (NCATS)
